In all, about 110,000 compounds were measured (“z-score”: median about -0.1, highest 2% from about 2 on). The list shows a part of the results. Activity calls are given as the source filed them.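 Rule for the calls: active = z-score in the third read window above 3 or below -3; inactive = the rest.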
Target: Metabotropic glutamate receptor 8 (Rattus norvegicus) (UniProt P70579)
Experiment: rat mGluR8 modulators via GIRK flux, primary screen, cell-based, thallium flux, HTS (AID 488969)
Conditions: HEK293 rat mGluR8, GIRK (G protein-gated inwardly rectifying potassium channel) thallium flux, FluoZin2; at 10 µM; stronger effect = higher value; submaximal glutamate (EC20) added with thallium

Sequence of UniProt P70579 (P70579 whole entry, looked up): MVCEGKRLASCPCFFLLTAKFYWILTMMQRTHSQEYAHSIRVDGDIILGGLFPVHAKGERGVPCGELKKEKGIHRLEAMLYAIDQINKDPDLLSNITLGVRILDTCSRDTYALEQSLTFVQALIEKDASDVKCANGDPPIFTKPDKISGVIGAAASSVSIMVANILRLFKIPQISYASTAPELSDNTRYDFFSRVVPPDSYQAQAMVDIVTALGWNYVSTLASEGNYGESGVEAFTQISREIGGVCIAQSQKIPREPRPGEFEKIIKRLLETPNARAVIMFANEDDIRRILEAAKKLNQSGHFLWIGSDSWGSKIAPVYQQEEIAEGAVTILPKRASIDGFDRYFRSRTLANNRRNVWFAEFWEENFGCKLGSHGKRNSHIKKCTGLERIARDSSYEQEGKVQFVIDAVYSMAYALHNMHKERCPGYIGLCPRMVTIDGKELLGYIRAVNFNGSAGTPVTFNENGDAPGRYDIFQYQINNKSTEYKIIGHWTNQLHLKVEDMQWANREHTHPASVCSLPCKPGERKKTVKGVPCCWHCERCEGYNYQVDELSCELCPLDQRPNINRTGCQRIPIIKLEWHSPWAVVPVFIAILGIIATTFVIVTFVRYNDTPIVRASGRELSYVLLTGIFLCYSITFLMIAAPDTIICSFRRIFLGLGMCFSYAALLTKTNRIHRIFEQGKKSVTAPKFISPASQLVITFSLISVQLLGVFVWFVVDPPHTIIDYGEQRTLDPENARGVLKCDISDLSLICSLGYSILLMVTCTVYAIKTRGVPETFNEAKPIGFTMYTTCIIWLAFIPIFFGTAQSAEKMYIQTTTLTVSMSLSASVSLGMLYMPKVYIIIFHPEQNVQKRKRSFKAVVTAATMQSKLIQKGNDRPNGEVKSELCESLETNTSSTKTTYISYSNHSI

| Compound | z-score |
| --- | --- |
| CCCC1S/C(=N/N=C/c2ccc(C)cc2)N(Cc2ccc(OC)cc2)C1=O (stereo unspecified) | 0.151 |
| COC(=O)C(C)N1C(=O)S/C(=C/c2cc(C)n(C(C)C)c2C)C1=O (stereo unspecified) | -0.406 |
| CC(=O)c1cnc2cc(-c3ccc(C)cc3)nn2c1C | -0.0131 |
| COc1cc(C(=O)NCCOc2ccccc2)c(Br)c(OC)c1OC | -0.025 |
| COc1ccccc1NC(=S)NC(NC(=O)c1ccco1)C(Cl)(Cl)Cl (stereo unspecified) | -0.246 |
| CCn1c(N)c(C(=O)NCCOC)sc1=S | 0.268 |
| CC(=O)/C(=N/Nc1ccccc1)N1CCOCC1 | -0.0701 |
| CCN(CC)C(=O)c1cnn(-c2ccccc2)c1NC(=O)c1ccccc1F | -0.221 |
| O=C(CSc1nc(-c2ccco2)cc(C(F)(F)F)n1)NCC1CCCO1 (stereo unspecified) | -0.0881 |
| Cn1c(=O)c2c(ncn2CC(=O)NC(C)(C)C)n(C)c1=O | 0.319 |
| COc1cccc(C2C(C(C)=O)=C(O)C(=O)N2CCc2c[nH]c3ccccc23)c1 (stereo unspecified) | -0.32 |
| O=C(CN1C(=O)COc2ccc(Cl)cc21)N1CCc2ccccc21 | 0.45 |
| CNc1nc(Cl)nc(NC(C)(C)C)n1 | active: 7.77 |
| CN(C)S(=O)(=O)c1cc(NC(=O)CN2C(=O)NC3(CCCc4ccccc43)C2=O)ccc1Cl (stereo unspecified) | 0.654 |
| COc1c(Cl)cc(Cl)cc1C(=O)Nc1ccc(NC(=O)c2cccs2)cc1 | 0.021 |
| COCC(=O)n1nc(NCc2ccc(OC)cc2)nc1NCc1ccc(OC)cc1 | -0.00999 |
| N=c1c2c(-c3ccccc3)c(-c3ccccc3)oc2ncn1Cc1ccco1 | -0.188 |
| COCCNC(=O)c1ccccc1NC(=O)c1ccc(Cl)c(S(=O)(=O)Nc2ccc(C)cc2C)c1 | -0.243 |
| COC(=O)c1[nH]c2ccccc2c1NC(=O)c1ccccc1[N+](=O)[O-] | -0.351 |

| Compound | z-score |
| --- | --- |
| CC1CCCC(C)N1/N=C/c1cc(Br)c(O)c(Br)c1 (stereo unspecified) | -0.155 |
| C=CCn1c(SCC(=O)c2ccc(Br)cc2)nnc1C(CC(C)C)NC(=O)c1cccs1 (stereo unspecified) | -0.413 |
| C=CCn1c(C#N)c(N)sc1=N | 0.591 |
| CNS(=O)(=O)c1cc(C(=O)OCC(=O)NC2CCCc3ccccc32)ccc1Cl (stereo unspecified) | -0.391 |
| CCOC(=O)CN(C(=O)c1ccccc1)c1ccccc1C | -0.114 |
| CCn1c(CNc2ccc(F)cc2)nnc1SCC(=O)Nc1ccc(OC)cc1OC | 0.601 |
| CCCc1nc(SCC(=O)Nc2nnc(CC)s2)c2c(C)c(C)sc2n1 | -0.42 |
| CCCOc1ccc(C(=O)NNC(=S)NC(=O)CC)cc1 | active: 3.01 |
| O=C(CSc1nc(O)cc(=O)n1-c1ccccc1)N1CCCCC1 | active: 4.46 |
| O=C1c2cccc3cc(Br)cc(c23)C(=O)N1Nc1ccccc1 | -0.392 |
| Cc1cc(C)cc(NC(=O)CCNS(=O)(=O)c2ccc3c(c2)oc(=O)n3C)c1 | -0.318 |
| CCn1c(=S)[nH]c2cc(C(=O)OC)ccc2c1=O | active: 7.77 |
| COc1ccc(-c2coc3cc(O)ccc3c2=O)cc1OC | -1.04 |
| OCCNCCCOc1ccc(Cl)cc1Br | 0.496 |
| O=C(NCC(=O)N(Cc1ccccc1)C(C(=O)NC1CCCCC1)c1ccco1)c1ccco1 (stereo unspecified) | 0.0119 |
| CCCCc1ccc(-c2ccc(C)cc2O)nc1 | 0.053 |
| O=C(NN=C1CCCCCCC1)c1ccccn1 | 0.0607 |
| Cn1c(=O)c2c(nc(CN3CCN(c4cccc(Cl)c4)CC3)n2CCc2ccccc2)n(C)c1=O | 0.0762 |
| O=S(=O)(NCCc1ccccn1)c1cccs1 | 0.136 |

| Compound | z-score |
| --- | --- |
| COc1ccc(C2C(C(=O)c3ccco3)=C(O)C(=O)N2Cc2cccnc2)cc1OC (stereo unspecified) | 0.59 |
| O=C(O)c1ccc2c(c1)C(=O)N(Cc1ccccc1)C2=O | -1 |
| COC(=O)CCc1c(C)c(C#N)c2nc3ccccc3n2c1N1CCCC1 | -0.478 |
| CSc1ccccc1NC(=O)c1cnccn1 | 1.79 |
| Cc1ccc(NC(=S)NC2CCCC2)cc1 | -0.118 |
| CCOC(=O)/C(N=Nc1c(Br)cc(Br)cc1Br)=C(\C)O | 0.239 |
| COc1cccc(NC(=O)CSc2ccccn2)c1 | 0.192 |
| O=C(O)c1cn(-c2ccc(F)c(F)c2)c2c(F)c(F)c(F)c(F)c2c1=O | -0.0414 |
| CSCCC(NC(=O)C1CCC(C)CC1)C(=O)NCc1ccco1 (stereo unspecified) | -0.0295 |
| Cc1ccccc1OCC(=O)Nc1ccc(N2CCN(S(C)(=O)=O)CC2)cc1 | 0.137 |
| O=c1c2ccccc2c(C=Nc2cccc(S(=O)(=O)NCc3ccco3)c2)c(O)n1-c1ccc(Cl)cn1 | -0.105 |
| NC(=O)c1ccsc1NC(=O)COc1ccccc1 | 0.861 |
| N#Cc1c(/N=C/c2cc(Br)cs2)sc2c1CCC2 | -0.0914 |
| O=C(NNC(=O)c1ccccc1O)c1ccc(Cl)cc1 | -0.389 |
| COc1ccc(/C=C(\C#N)C(=O)NCCc2ccccc2)cc1OCc1ccccc1 | -0.0863 |
| Cc1cc(NC(=O)COC(=O)C(Cc2ccccc2)NC(=O)c2ccco2)no1 (stereo unspecified) | -1.25 |
| CCC(Sc1nc(C)cc(=O)[nH]1)C(=O)Nc1sc2c(c1C#N)CCCC2 (stereo unspecified) | 0.29 |
| COc1ccc(CCCc2nnc(SCC(=O)Nc3ccc(C)c(C)c3)o2)cc1 | -0.276 |
